For this test, the system named is NCI-H322M lung. In words: NCI tumour cell line growth inhibition, 48 h.

Here are results for four molecules from PubChem BioAssay (NCI).

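In this assay, cells in 96-well plates receive the compound at five concentrations for 48 hours. Endpoints are linearly interpolated between the surrounding concentrations. Abbreviation: GI50, concentration required for 50% inhibition of growth. The concentration for full growth arrest is given as TGI.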

In the case of `CC1(C)CC[C@]2(C(=O)O)CC[C@]3(C)C(=CCC4[C@@]5(C)C[C@@H](O)[C@@H]6OC(c7ccc(F)cc7)OC[C@@]6(C)C5CC[C@]43C)C2C1` (stereo partly drawn), the GI50 was 3.91 µM and the TGI amounted to 22.3 µM.
The corresponding values for `Cc1cc(N=C2NC(=O)S/C2=C\c2ccc(F)cc2)n[nH]1` are 3.27 µM and over 100 µM.
The corresponding values for `CC(C)(C)Nc1nc2cc(Cl)c(Cl)cc2nc1S(C)(=O)=O` are 15.7 µM and 29.3 µM.
The corresponding values for `CC(=O)Nc1nc(-c2ccc(N3CCN(C)CC3)c(NS(=O)(=O)c3ccc(C(F)(F)F)cc3)c2)cs1` are 7.7 µM and 14.8 µM.
